The target in this assay is T1, Biotinylated PTX3 (human, UniProt P26022 18-381, NHS-PEG4-biotin on primary amines, on average 2 mol of biotin/mol of PTX3 protomer).
T1 construct: pentraxin 3 (PTX3), human, recombinant, biotinylated through primary amines; Immobilised on a streptavidin monolayer by its biotins, in a variety of orientations; also called b-PTX3; source: Chinese hamster ovary 3.5 cell line, purified, then modified with EZ-Link NHS-PEG4-Biotin
Kind of assay: spectroscopic ellipsometry; b-PTX3 immobilised on a streptavidin monolayer at a monomer surface density of 4.8 pmol/cm^2; Link_TSG6 or rhTSG-6 added at identical molar bulk concentrations, then buffer rinse; HEPES buffer pH 7.4; no HA. Particulars: both partners purified.

Experimental findings from article PMC4215230, “Incorporation of Pentraxin 3 into Hyaluronan Matrices Is Tightly Regulated and Promotes Matrix Cross-linking” (The Journal of Biological Chemistry, 2014) are described below.

T1 sequence (P26022 18-381): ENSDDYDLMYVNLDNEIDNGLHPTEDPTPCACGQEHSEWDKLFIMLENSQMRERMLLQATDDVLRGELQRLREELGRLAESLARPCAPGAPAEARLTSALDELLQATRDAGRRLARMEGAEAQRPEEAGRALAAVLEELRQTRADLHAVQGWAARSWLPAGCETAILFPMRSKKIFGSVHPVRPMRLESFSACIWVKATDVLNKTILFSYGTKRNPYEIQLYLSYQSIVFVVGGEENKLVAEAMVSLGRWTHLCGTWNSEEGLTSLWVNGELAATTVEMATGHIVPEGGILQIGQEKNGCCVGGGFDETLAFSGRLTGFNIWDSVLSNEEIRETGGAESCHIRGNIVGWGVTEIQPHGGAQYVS

B1: Wild type human TSG-6 Link module (Link_TSG6) (domain or fragment)
chain: not shown
notes: TSG-6 (secreted product of tumor necrosis factor-stimulated gene-6), human, Link module, 10.9 kDa; source: Escherichia coli, as described previously
Take B1: the “stoichiometry N” value is 4 TSG-6 binding sites per PTX3 octamer.
